Data published in PubChem BioAssay AID624296 (National Center for Advancing Translational Sciences (NCATS), 2012).
The campaign covered roughly 350,000 compounds. About 9,900 (2.8%) were called active. The shares of active, inactive and inconclusive entries below differ from those in the screen. The call rests on the fitted dose curve; in most records, active means well fitted activation curve with a large enough effect; inconclusive means small, poorly fitted or top-dose-only effect; inactive means no such curve, though single readings can be large or run the other way. No potency is given beside an inconclusive call; the fits are too rough.

Assay: A quantitative high throughput screen for small molecules that induce DNA re-replication in MCF 10a normal breast cells. Further: nearly all actives have a fitted effect of over 50% in size.
Settings: MCF 10A DNA re-replication, Hoechst nuclear intensity, 48 h; series mostly up to 46.1 µM
Potency means the concentration at half of the fitted maximal effect; tags describe the fitted curve by direction and shape.

SMILES | Potency
Cc1ccccc1C(=O)Nc1nc(-c2cccnc2)cs1 | inactive
Cc1cc(C(=O)COc2cccnc2[N+](=O)[O-])c(C)n1Cc1cccs1 | inconclusive [activator, single point]
CC1CCN(Cc2c(C(=O)N/N=C/c3cc(Br)ccc3O)nnn2-c2nonc2N)CC1 | inactive
COc1ccc(N(C(C)C(=O)N2CCCC2)S(C)(=O)=O)cc1 (configuration not stated) | inactive
COc1cc(OC)cc(-c2c(C#Cc3ccsc3)c3cc(-c4cnc(OC)nc4)ccc3n2C)c1 | inactive
O=C(c1ccccc1F)n1c2c(c3ccccc31)CCCC2 | active: 14.6 µM
C=CCc1c(C)nc(SC)nc1Nc1ccc(C(C)=O)cc1 | inactive
COc1cc(C(=O)OC(C)C(=O)Nc2ccc3c(c2)OCCO3)cc(OC)c1OC (configuration not stated) | inconclusive [activator, single point]
N#CC(=C(O)COC(=O)CCCNC(=O)c1ccc(Cl)cc1)c1nc2ccccc2[nH]1 | inconclusive [activator, single point]
CC(C)C(NC(=O)CSc1ccc(Cl)cc1)C(C)C | active: 25.9 µM
COc1ccc2nc(-c3ccccc3)cc(OC)c2c1 | inconclusive [activator, partial curve, poor fit]
COc1cc2nc(N(CCN(C)C)C(=O)c3ccc(S(=O)(=O)N(C)CC4CCCO4)cc3)sc2cc1OC (configuration not stated) | inactive
O=C(/C=C/c1ccc(Cl)cc1)c1ccc([N+](=O)[O-])o1 | active: 8.2 µM
Cc1ccc(C)c(Cn2nnc3c(=O)[nH]c(C4CCN(C(=O)c5cccs5)CC4)nc32)c1 | inconclusive [activator, partial curve, poor fit]
NC(=O)c1nsc(C(=O)N(c2cccc(F)c2)C(C(=O)NCC2CCCO2)c2cccs2)c1N (configuration not stated) | inconclusive [activator, single point]
O=c1c2cc(N3CCOCC3)ccc2[nH]c(=S)n1CCc1ccccc1 | inconclusive [activator, single point]
CCCCCc1cc(=O)oc2c(C(CCN3CCCC3)c3ccc(N(C)C)cc3)c(OC)cc(OC)c12 (configuration not stated) | inactive
Cc1nc([N+](=O)[O-])c(Br)n1CC(=O)c1ccc(Br)cc1 | inconclusive [activator, single point]
COc1cc(C(=O)NCCCNc2nc3cc(C)cc(C)c3cc2C#N)cc(OC)c1OC | inconclusive [activator, partial curve]
O=C(Nc1cccc(Cl)c1)OCc1cn(-c2ccccc2)nn1 | inconclusive [activator, single point]
CCOC(=O)C1=C(CSc2nc(CC)c(C)cc2C#N)OC(N)=C(C#N)C1c1ccccc1 (configuration not stated) | inconclusive [activator, single point]

SMILES | Potency
COc1cccc(-c2sc3ccc(OC)cc3c2C#CC2(O)CCCCC2)c1 | inconclusive [activator, single point]
CN(CC(=O)Nc1cccc(F)c1)C(=O)c1cn(-c2ccccc2)nc1-c1ccc(Cl)cc1 | inconclusive [activator, single point]
Cc1cc(C)c(NS(=O)(=O)c2ccc(NC(=O)c3cccs3)cc2)c(C)c1 | inconclusive [activator, partial curve, poor fit]
CCOC(=O)[C@H]1[C@H]2COc3ccc(Br)cc3[C@@H]2N2C(=O)CN(Cc3ccc(C)cc3)C(=O)[C@@]12C | inconclusive [activator, single point]
COc1ccc(-c2cnc(SCC(=O)Nc3ccc4c(c3)OCO4)n2Cc2ccco2)cc1 | inconclusive [activator, partial curve, poor fit]
COc1cccc(N2CCN(S(=O)(=O)c3ccc(-c4cnc(C5CC5)o4)cc3)CC2)c1 | inconclusive [activator, partial curve]
CCC(C)Sc1ccc([C@H]2N[C@@](C)(C(=O)OC)[C@H]3C(=O)N(C)C(=O)[C@@H]23)cc1 (some centres not stated) | inconclusive [activator, partial curve, poor fit]
O=[N+]([O-])c1cccc(CP(=O)(c2ccccc2)c2ccccc2)c1 | inactive
O=C(O)c1ccc(CNS(=O)(=O)c2ccc(Oc3ccccc3Cl)cc2)cc1 | inconclusive [activator, single point]
COc1cc(OC)cc(-c2cc3nc(C)c(CCC(=O)O)c(C)n3n2)c1 | active: 18.4 µM
CCn1ncc(CN2CCN(Cc3ccc(OC)c(C)c3C)C(CCO)C2)c1C (configuration not stated) | inconclusive [activator, full curve]
COc1cccc(NC(=S)Nc2cc(C)cc(C)n2)c1 | inconclusive [activator, single point]
CN(C)S(=O)(=O)c1cccc(NC(=O)CSc2ncnc3ccccc23)c1 | inconclusive [activator, single point]
O=C(/C=C\c1ccco1)Oc1cccc2cccnc12 | inconclusive [activator, full curve]
COc1cccc2[nH]c3c(N4CCc5ccccc5C4)ncnc3c12 | inconclusive [activator, full curve]
CCOc1ccccc1CNC(=O)c1ccc(NC(=O)C2=CSCCO2)cc1 | inactive
COc1ccc(-n2c(C)c([N+](=O)[O-])c3ccc(O)c(CN(C)C)c32)cc1 | inconclusive [activator, partial curve]
COc1cccc(-n2nnnc2SCC(=O)NC2CCCC2)c1 | inactive
COc1ccc(OCC(=O)N/N=C2/C=C(C)CC2)cc1 | inconclusive [activator, single point]
CC1=Nc2cc(C(=O)NCCCN3CCN(C)CC3)ccc2Sc2ccc(C)cc21 | inconclusive [activator, single point]
O=c1c(Cl)c(N/N=C/c2ccc(Cl)cc2)cnn1-c1ccccc1 | inconclusive [activator, single point]
